Experiments:
[1] = SAXS, suppression of PG-1-induced cubic phases (NGC); settings: PG-1 P/L 1/40, apoMP1 P/L varied
Description: Since apoA-I assembles spheroidal HDL particles with small radii, it can stabilize positive membrane curvature by definition. […] To test the idea that an apoMP may suppress H4n pore-forming activity via membrane-mediated interactions, we developed a theoretical model (Supporting Information) for mixtures of two membrane-bound peptides (or proteins), one inducing negative (−) Gaussian curvature (ex: saddle-shaped deformations from H4n) and the other positive (+) Gaussian curvature (ex: dome-shaped deformations from apoMP1), in which positive curvature is induced in the membrane with no assumed preferred direction. Each peptide is taken to induce local principal curvatures in the membrane, ξ1 and ξ2, which work against the membrane deformations given by the Helfrich free energy over the membrane area FHelfrich=(π/2)∫dA(a2+a2)^2 with bending rigidity κ. The energy of a single (±) peptide is E2/(kBT)≡(λ/2)[(a1−ξ1,z)^2+(a2−ξ2,z)^2] when the peptide's maximal curvature is aligned with the membranes, where (λ/2)+(ξ1, ±^2+ξ2, ±^2) is the energy cost of binding a peptide to a flat membrane, λ is a dimensionless coupling constant, and the induced principal curvatures depend on the peptide type. Analogous to classical nucleation theory, the free energy scales as E=−σπΓ for a pore of radius r and pore rim line tension Γ on a membrane with effective surface tension σ. […]

[2] = SAXS, effect of apoMP1 on inverse hexagonal phase; settings: FIG. 3d
Protocol: FIG. 3. Apolipoprotein A-I mimic apoMP1 inhibits the pro-lytic membrane activity of histone H4 N-terminus and unrelated peptides. FIG. 3(a) SAXS spectra of PS/PE/CH 20/70/10 SUVs incubated with H4n and apoMP1. The P/L molar ratio of H4n was held constant at 1/40, while the P/L molar ratio of apoMP1 was varied. […] FIG. 3(b) SAXS spectra of PS/PE 20/80 SUVs co-treated with the AMP PG-1 (NGC-generating peptide) and apoMP1. The P/L molar ratio of PG-1 was held constant at 1/40, while the P/L molar ratio of apoMP1 was varied. […] FIG. 3(c) SAXS spectra of PS/PE 20/80 SUVs co-treated with the CPP HIV-TAT (NGC-generating peptide) and apoMP1. The P/L molar ratio of HIV-TAT was held constant at 1/40, while the P/L molar ratio of apoMP1 was varied. […] FIG. 3(a-d) Observed reflections for the Pn3m cubic (green), Im3m cubic (yellow), hexagonal (blue), and lamellar (red) phases have been assigned on the curves. (e) Schematic portrayal of the suppression of H4n-induced NGC generation and pore formation by apoMP1.
Since apoA-I assembles spheroidal HDL particles with small radii, it can stabilize positive membrane curvature by definition. […]

[3] = SAXS of SUVs with NGC-generating peptide alone; settings: P/L 1/40; PS/PE 20/80 SUVs
Protocol: Before assessing how apoMP1 may influence the pore-forming activity of H4n, we conducted a control study to confirm H4n's ability to generate membrane-destabilizing curvature at lipid compositions of interest. Small unilamellar vesicles (SUVs) were prepared from ternary lipid mixtures of phosphatidylserine (PS), phosphatidylethanolamine (PE), and cholesterol (CH) at molar ratios of PS/PE 20/80 and PS/PE/CH 20/70/10. Because cholesterol constitutes a large fraction of mammalian cell membranes,^41 we used physiologically relevant cholesterol-containing SUVs to examine the effect of cholesterol on the membrane-remodeling properties of H4n. For the model membrane PS/PE 20/80, we observed a coexistence of three phases: (1) a lamellar phase (Lα) (peaks with q-ratios 1:2:3), (2) an inverse hexagonal phase (HII) (peaks with q-ratios √1:√3:√4:√7:√9), and (3) a Pn3m inverse bicontinuous cubic phase (QII) with a lattice parameter of 20.03 nm (peaks with q-ratios √2:√3:√4) (FIG. 2d). The Pn3m phase is rich in NGC (FIG. 2c). For the cholesterol-containing model membrane PS/PE/CH 20/70/10, we again observed a similar phase coexistence, but with a smaller lattice parameter in the Pn3m phase (18.30 nm) (FIG. 2d, Table S1). […] For Pn3m, χ=−2 and A0=1.919.

Row | Substance | Effect on PG-1-induced Pn3m and Im3m QII phases (NGC) [1] | Effect on PG-1-induced Pn3m and Im3m QII phases (NGC) ([1]; listed as ApoMP1) | Phase transformation by apoMP1 [2] | Phase transformation by apoMP1 ([2]; listed as ApoMP1) | Phases induced by peptide alone [3]
1 | D-W-F-K-A-F-Y-D-K-V-A-E-K-F-K-E-A-F (DWFKAFYDKVAEKFKEAF) [apoMP1] | suppressed at high P/L molar ratios | dose-dependent suppression | transform an inverse hexagonal phase with strong negative mean curvature into a lamellar phase with zero mean curvature | transform an HII phase with strong negative mean curvature into an Lα phase with zero mean curvature | 
2 | R-G-G-R-L-C-Y-C-R-R-R-F-C-V-C-V-G-R (RGGRLCYCRRRFCVCVGR) [PG-1, antimicrobial peptide, NGC-generating] |  |  |  |  | Lα, HII, Pn3m QII, and Im3m QII phases

— patent US20240279313A1, “BARRIER FUNCTION PRESERVING PEPTIDES FOR MEMBRANES” (priority 2021, published 2024)
